Experimental data taken from PubChem BioAssay AID624202 (National Center for Advancing Translational Sciences (NCATS), 2012).
Among all 380,000 compounds or so, about 4,000 (1.1%) were called active. Inconclusive results, whose numbers are uncertain, are shown with a selection of clear calls. Calls come from the whole dose curve; as a rule, active = well fitted activation curve with a large enough effect; inconclusive = small, poorly fitted or top-dose-only effect; inactive = no such curve, though single readings can be large or run the other way. Potencies beside an inconclusive call are fits to weak or partial responses and may not hold up.

Test: qHTS Assay to Identify Small Molecule Activators of BRCA1 Expression; note: nearly all actives have a fitted effect of over 80% in size
Details: MCF7-BRCA1-FFLuc reporter, luminescence, 48 h; activation: at 46.1 µM (top of the series), scaled: vehicle 0%, 10 µM genistein 100% unless noted
Procedure, shortened: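 Activators of BRCA1 expression were detected as increased firefly luciferase luminescence in engineered MCF7 cells after 48 h compound incubation. Signals were scaled to genistein 10 microM as full activation.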
Potency is the fitted concentration of half-maximal effect; tags give direction and shape of the fitted curve.

SMILES	Potency	activation
Cc1ccc(SCCN2CCC(C(C)(C)C)CCC2=O)cc1 (stereo not given)	inconclusive: 7.94 µM [activator, partial curve, poor fit]	–
CCn1c(NCc2ccc3c(c2)OCO3)nc2ccccc21	inconclusive: 22.4 µM [activator, single point]	–
CC1CCc2sc(C(=O)NCC3CCCO3)cc2C1 (stereo not given)	inconclusive: 2.82 µM [activator, full curve, poor fit]	–
O=C1NN(c2ccccc2)C(=O)/C1=C/c1ccc(Sc2cccc3ccccc23)o1	inactive	–
Cn1cc(/C=C/c2cc[n+](C)cc2)c2cc(F)ccc21	inactive	–
CCOC(=O)c1c(C)[nH]c(N=Nc2ccc(C)cc2)c1C	inconclusive: 2.24 µM [activator, full curve, poor fit]	–
O=[N+]([O-])c1ccc(NN=Cc2cccc3ccccc23)nc1	inactive	–
Cc1ccc(-n2nnnc2C(Cl)c2nnnn2-c2ccc(C)cc2)cc1	inactive	–
O=C(NCCC1=CCCCC1)c1ccc(-n2cncn2)cc1	active: 3.16 µM	–
Cc1cnc(C(=O)Nc2ccc3c(c2)CCC3)cn1	inconclusive: 1 µM [activator, full curve, poor fit]	–
CC(=O)c1ccc(NCCC(=O)c2ccccc2)cc1	active: 11.2 µM	–
O=C(Cc1ccccc1)Nc1sc2c(c1C(=O)Nc1ccc(Br)cc1)CCCC2	inactive	–
CNc1ccc(-c2cc(OC)ccc2OC)cn1	inactive	–
CC(C)CSc1nc2ccccc2[nH]1	inconclusive: 22.4 µM [activator, single point]	–
O=C(c1ccc(Cl)cc1)N1CCCCC(Sc2nnc(-c3ccc4c(c3)OCO4)o2)C1=O (stereo not given)	–	inconclusive: -82.8% [activator]
CC1CC1C(=O)Nc1ccc(-c2ccccc2)cc1 (stereo not given)	active: 2.51 µM	–
COc1ccc2c(c1)CC/C2=N\NC(=O)c1ccccc1	inconclusive: 12.6 µM [activator, partial curve, poor fit]	–
C=CCC[C@H](Cc1ccc(F)cc1)C(=O)OC[C@@H](C)NC(=O)[C@@H](CC=C)CC(=O)N[C@H](CO)Cc1ccccc1	inactive	–
CCOC(=O)C1(CCOc2ccccc2)CCN(Cc2ccccc2O)CC1	inactive	–
Cc1ccc(NC(=O)/C=C2\NC(=O)CS2)cc1	inconclusive: 12.6 µM [activator, single point]	–
Cc1cc(NS(=O)(=O)c2ccc(NC(=O)Nc3ccc4c(c3)OCO4)cc2)no1	inconclusive: 10 µM [activator, partial curve, poor fit]	–
COc1cccc(-n2c(SCC(=O)Nc3cccc(C)c3)nc3c([nH]c4ccccc43)c2=O)c1	inactive	–
O=C(Nc1ccc(N2CCCC2)cc1)c1cccc(Cl)c1	inconclusive: 1.12 µM [activator, full curve, poor fit]	–
Cn1ccnc1C(=O)c1ccc(Cl)c(S(=O)(=O)N2CCOCC2)c1	inactive	–
Cc1oc(-c2ccc(Cl)cc2)cc1C(=O)O	inconclusive: 1.26 µM [activator, full curve, poor fit]	–

SMILES	Potency	activation
Cc1ccc2c(c1)C(N1CCCC1=O)CC(c1ccco1)N2 (stereo not given)	inconclusive: 2.82 µM [activator, full curve, poor fit]	–
c1cnc2c(SCc3ccc(-c4nnco4)cc3)cccc2c1	inconclusive: 14.1 µM [activator, partial curve, poor fit]	–
O=C(N/N=C/c1cccc([N+](=O)[O-])c1)c1ccc2c(c1)OCCO2	inconclusive: 2.24 µM [activator, full curve, poor fit]	–
CCn1c(NCc2ccccc2Cl)nc2ccccc21	inconclusive: 15.8 µM [activator, partial curve, poor fit]	–
O=C(CC(=O)c1ccccc1)Nc1cccc([N+](=O)[O-])c1	inconclusive: 22.4 µM [activator, single point]	–
Cc1oc2ccc(OC(=O)COc3c(F)c(F)c(F)c(F)c3F)cc2c1C(=O)OC(C)C	inconclusive: 10 µM [activator, partial curve, poor fit]	–
COc1ccc(CCNC(=O)c2ccc(Cl)c(S(=O)(=O)N3CCCC3)c2)cc1	inactive	–
O=C(Nc1ccccc1Cl)c1ccc2c(=O)n3c(nc2c1)CCC3	inconclusive: 0.631 µM [activator, full curve, poor fit]	–
COCCCN(C(C)=O)c1nc(-c2ccccc2)cs1	inconclusive: 2.51 µM [activator, full curve, poor fit]	–
CCc1nnc(NC(=O)Nc2ccccc2OC)s1	active: 6.31 µM	–
CCCCN(C)S(=O)(=O)c1ccc(C(=O)N(CCN(C)C)c2nc3ccc(C)cc3s2)cc1	inconclusive: 35.5 µM [activator, single point]	–
CONC(=O)C1CCN(C(=O)OCc2ccccc2)CC1	active: 14.1 µM	–
O=c1c(N2CCCCC2)coc2ccccc12	active: 8.91 µM	–
O=P(c1ccccc1)(c1ccccc1)C(c1ccco1)N1CCOCC1 (stereo not given)	inactive	–
Cc1ccc(OCCn2c(=O)n(C)c3ccccc32)cc1	inconclusive: 12.6 µM [activator, partial curve, poor fit]	–
Cc1ccc2c(COC(=O)C3=COCCO3)cc(=O)oc2c1	inconclusive: 2.82 µM [activator, partial curve, poor fit]	–
Cc1csc(NC(=O)CCCc2cccs2)n1	inconclusive: 12.6 µM [activator, partial curve, poor fit]	–
O=C(O)CSCC(=O)Nc1cc(C(F)(F)F)ccc1Cl	inactive	–
Cc1ccsc1/C=N/Nc1nc2ccccc2[nH]1	inconclusive: 1.26 µM [activator, full curve, poor fit]	–
C(=N\Nc1nc(N2CCCC2)nc(N2CCCC2)n1)/c1ccccc1OCc1ccccc1	inactive	–
CCCCOc1ccc(CN2CCC(O)CC2)cc1	inconclusive: 6.31 µM [activator, partial curve, poor fit]	–
O=C(NC1CCCCCC1)C(=O)NC1CCCC1	inconclusive: 3.16 µM [activator, partial curve, poor fit]	–
CC(=O)N1CCN(c2nnc(-c3ccccc3)c3ccccc23)CC1	inactive	–
CCOC(=O)c1oc2ccc(CNC3CCCCC3)c(Cl)c2c1C	inactive	–
CCc1ccc(Nc2ncc3c(n2)CC(C)(C)CC3=O)cc1	inconclusive: 3.16 µM [activator, full curve, poor fit]	–

SMILES	Potency	activation
CC1CN(C(=O)c2ccc(COc3ccc(C(C)C)cc3)o2)CC(C)O1 (stereo not given)	inconclusive: 3.55 µM [activator, partial curve, poor fit]	–
O=C(CCCc1ccccc1)c1ccc2c(c1)OCCO2	inactive	–
O=C(CS(=O)CC(=O)Nc1ccccc1-c1ccccc1)Nc1ccc(F)cc1 (stereo not given)	inconclusive: 31.6 µM [activator, single point]	–
Cn1cnnc1SCC(=O)Nc1ccc2nc(SCc3ccccc3F)sc2c1	active: 3.98 µM	–
CCOC(=O)c1nn(-c2ccc(F)cc2)cc1O	inconclusive: 20 µM [activator, partial curve, poor fit]	–
COC(=O)[C@@]1(Cc2ccc(F)cc2)[C@H]2c3cc(C(=O)N4CCCC4)n(CCc4ccccn4)c3C[C@H]2CN1C(=O)c1ccccc1	inactive	–
CC1(C)C2CCC1(C)C(NC(=O)/C=C/c1ccccc1)C2 (stereo not given)	inactive	–
COC(=O)CN(c1nc(C)cc(OC)n1)S(=O)(=O)c1ccccc1	inactive	–
Cc1cccc(NC(=O)c2ccc(NCC3CCCO3)c([N+](=O)[O-])c2)n1 (stereo not given)	inconclusive: 17.8 µM [activator, partial curve, poor fit]	–
O=C1OC2(CCCCC2)OC(=O)C1=CNc1ccc2c(c1)OCO2	inactive	–
O=C(Nc1ccon1)c1cc2c(s1)CCCCCC2	active: 10 µM	–
COc1ccc(-c2cc3c(nn2)-c2ccccc2C3=O)cc1	–	inconclusive: -60.7% [activator]
O=C(Nc1nnc(C2CC2)s1)c1cc(Cl)sc1Cl	inconclusive: 11.2 µM [activator, partial curve, poor fit]	–
O=c1cc(-c2ccccc2)oc2cc(O)ccc12	active: 10 µM	–
CC1(C#N)c2ccccc2C(Br)=CN1C(=O)c1ccccc1 (stereo not given)	inactive	–
CCOc1ccc(-c2nc(CCl)cs2)cc1	inconclusive: 1.58 µM [activator, partial curve, poor fit]	–
O=c1[nH]cnc2nn(-c3ccccc3)nc12	inconclusive: 11.2 µM [activator, partial curve, poor fit]	–
O=C(Nc1ccc2nccnc2c1)N1CCCCCC1	inconclusive: 14.1 µM [activator, single point]	–
CCC(=O)Nc1sc(C(=O)Nc2ccccc2)c(C)c1C(=O)OC	inconclusive: 1.41 µM [activator, full curve, poor fit]	–
Cc1ccc(S(=O)(=O)NCCC(=O)Nc2ccc(C)cc2C(=O)c2ccccc2)cc1	inactive	–
Cc1n[nH]c(=S)n1/N=C/c1ccc(OCc2ccc(Cl)cc2Cl)cc1	inconclusive: 3.98 µM [activator, partial curve, poor fit]	–
CCOc1cc(/C=N/NC(=O)c2ccc(-c3csc(Nc4ccc(C)cc4)n3)cc2)ccc1OCC(=O)O	inactive	–
CC(=O)c1sc(NC(=O)COc2ccccc2)nc1C	inconclusive: 22.4 µM [activator, single point]	–
Cc1ccc(NC(=O)CNCc2ccccc2)c(Br)c1	inconclusive: 20 µM [activator, single point]	–
Cc1cc(C)n2c(Br)c(CSc3nc4ccccc4s3)nc2n1	inconclusive: 10 µM [activator, partial curve, poor fit]	–
